Hit rate of the full screen: of about 45,000 compounds, about 65 (0.1%) were called active. The call rests on the fitted dose curve; in most records, active means well fitted activation curve with a large enough effect; inconclusive means small, poorly fitted or top-dose-only effect; inactive means no such curve, though single readings can be large or run the other way. This is one part of the list.
The compounds below were run against Galactocerebrosidase (Homo sapiens) (UniProt P54803) (assay: A Novel Cell-Based Assay to Identify Small Molecules for B -Galactocerebrosidase). Settings: 145M-Twi-hGALC-G270D cells, HMU-beta-Gal fluorescence, 48 h; series mostly up to 57.5 µM; activation: at the top concentration.
UniProt P54803, sequence (P54803 whole entry, looked up): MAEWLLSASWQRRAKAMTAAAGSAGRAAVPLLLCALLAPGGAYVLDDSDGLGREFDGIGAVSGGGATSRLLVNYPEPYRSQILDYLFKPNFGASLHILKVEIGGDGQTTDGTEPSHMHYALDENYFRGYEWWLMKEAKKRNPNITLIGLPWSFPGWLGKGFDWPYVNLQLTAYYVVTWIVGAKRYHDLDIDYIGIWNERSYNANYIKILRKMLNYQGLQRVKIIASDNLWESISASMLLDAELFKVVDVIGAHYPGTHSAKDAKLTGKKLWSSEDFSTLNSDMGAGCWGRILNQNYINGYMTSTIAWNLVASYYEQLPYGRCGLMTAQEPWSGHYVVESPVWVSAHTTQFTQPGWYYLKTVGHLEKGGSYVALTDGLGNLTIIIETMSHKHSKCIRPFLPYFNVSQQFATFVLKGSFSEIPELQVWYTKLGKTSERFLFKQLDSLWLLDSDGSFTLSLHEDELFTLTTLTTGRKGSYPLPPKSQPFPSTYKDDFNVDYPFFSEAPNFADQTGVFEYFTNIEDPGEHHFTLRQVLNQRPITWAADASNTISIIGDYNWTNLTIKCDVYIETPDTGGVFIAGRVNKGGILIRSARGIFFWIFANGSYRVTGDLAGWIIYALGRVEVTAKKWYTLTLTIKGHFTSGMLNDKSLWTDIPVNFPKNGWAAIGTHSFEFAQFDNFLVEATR
Outline: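 qHTS, 1536-well; 145M-Twi-hGALC-G270D cells (WT line also made) in DMEM/F12 + 10% FBS; compound incubation on live cells; HMU-β-gal 0.1 mM final, pH 5.2, NaTC; carbonate stop; fluorescence increase = enhanced residual activity.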
Further: 0% is about no effect; nearly all actives have a fitted effect of over 65% in size.

activation, inactive:
CC(=O)N1CCCc2cc(S(=O)(=O)N(CCN(C)C)Cc3ccccc3)ccc21 -15.2%
Cc1csc2nc(COC(=O)c3ccc(F)cc3)cc(=O)n12 -28.2%
O=C(CSc1nc2ccccc2n1Cc1ccc(F)cc1)N1CCN(c2ccc(F)cc2)CC1 -5.72%
COc1ccc(CNC(=O)CSCc2nc(-c3ccccc3F)oc2C)cc1 -13.6%
Cc1nnc(N2CCC(C(=O)NCCc3ccccc3)CC2)c2nn(-c3ccccc3)c(C)c12 -14.1%
O=C(Nc1ccc(OCc2cc(=O)n3ccsc3n2)cc1)c1ccc(F)cc1 0.243%
CCc1ccc(-c2nc(CN3CCC(C(=O)NCCc4ccc(C)cc4)CC3)c(C)o2)cc1 -9.16%
Cc1cccc(N(CC(=O)NCc2ccccc2)S(C)(=O)=O)c1C -11.7%
CCc1ccc(C2=CC(c3cccc(C)c3)n3c(nc4ccccc43)N2)cc1 (stereo unspecified) -9.92%
Cc1ccc(C)c(NC(=O)Cn2cnc3c(oc4ccccc43)c2=O)c1 -11.9%
COc1ccc(NC(=O)C(c2ccccc2)N2Cc3ccccc3C2=O)cc1 (stereo unspecified) -21.4%
Cc1cc(C)c2c(=O)cc(C(=O)Nc3ccc(C)c(Cl)c3)oc2c1 -2.59%
CCC(=O)N1c2ccccc2CC1C(=O)NCCc1ccc(SC)cc1 (stereo unspecified) -17.8%
Cc1ccccc1OCCn1cc(C(=O)C2CCCCC2)c2ccccc21 -16.4%
COCCn1c(-c2ccccc2)c(C)n2c3c(=O)n(C)c(=O)n(C)c3nc12 -3.87%
CCOC(=O)Cn1c(C2CC(=O)N(c3ccc(C)cc3)C2)nc2ccccc21 (stereo unspecified) -33.7%
CCNC(=O)N1CCN(CCCC(c2ccc(F)cc2)c2ccc(F)cc2)CC1 -8.45%
Cc1ccc(C)c(N2CCN(C(=O)Cn3cnc4sc(C)c(S(=O)(=O)N5CCN(c6ncccn6)CC5)c4c3=O)CC2)c1 7.39%
O=[N+]([O-])c1ccc(C(c2sc3nc(-c4ccco4)nn3c2O)N2CCN(Cc3ccccc3)CC2)cc1 (stereo unspecified) 4.17%
Cc1oc(-c2ccccc2Cl)nc1CS(=O)CC(=O)N1CCN(c2cccc(C(F)(F)F)c2)CC1 (stereo unspecified) 0.952%
Cc1nc2sccn2c(=O)c1S(=O)(=O)Nc1ccc(N2CCN(C)CC2)cc1 -10.1%
COc1cc2c(cc1OC)-c1cc(=Nc3c(C)cc(C)cc3C)n(C)c(=O)n1CC2 -16.7%
Cn1nnnc1SCCCNCc1cc(Br)ccc1OCc1ccccc1 -7.2%
Cc1cccc(N2CCN(C(=O)c3sc4nc5n(c(=O)c4c3C)CCC5)CC2C)c1 (stereo unspecified) -12.6%
CCCCSCCCNC(=O)C1CCN(Cc2nc(-c3ccc(CC)cc3)oc2C)CC1 -14.7%
CCCCNc1ccc(C(=O)OCCN(CC)CC)cc1 -12.9%
CCOc1ccc(CCNC(=O)C(CC)n2nc(C)c3c(C)n(-c4ccccc4)nc3c2=O)cc1 (stereo unspecified) -8.6%
COc1ccc(-c2c(C#N)c(SCC(=O)Nc3ccc(C)c(C)c3)nc(C)c2C(=O)Nc2ccc(Cl)cc2)cc1 -8.2%
Cc1cc(-c2ccc(S(=O)(=O)Nc3cccc(C)c3C)s2)on1 -29%
CCOC(=O)c1c(C)[nH]c(C)c1S(=O)(=O)N1CCC(C(=O)NCc2ccc(F)cc2)CC1 -7.14%
COc1cc(OC)c(NC(=O)NCCn2nnc3cc(S(=O)(=O)N(C)C)ccc32)cc1Cl -2.1%
COc1ccc(-c2nn3c(=O)cc(CN4CCN(C(=O)Nc5cc(C)ccc5C)CC4)nc3s2)cc1 -17.2%
O=C(NC1CCCC1)c1ccc(CSc2nc3cccnc3n2Cc2cccc(F)c2)cc1 -13.1%
COC(=O)c1ccc(OCC2c3cc(OC)c(OC)cc3CCN2C(=O)c2ccc(OC)cc2)cc1 (stereo unspecified) -21.1%
CC(C)(C)C1CCc2nc(NC(=O)c3cccc(Cl)c3)sc2C1 (stereo unspecified) -24.6%
O=c1[nH]c(SCc2ccccc2)nc2c1CCCC2 -8.65%
Cc1nc2ccn(Cc3cccnc3)c(=O)c2cc1C(=O)NCc1ccccc1 -13.8%
O=C(CSc1nnc(-c2ccccc2Br)n1-c1ccccc1)c1ccc(F)cc1 -31.3%
Cc1ccc2oc(=O)n(CCNC(=O)Nc3ccccc3C)c2c1 -0.101%
CCc1ccc(OCC(=O)Nc2ccc(S(=O)(=O)Nc3onc(C)c3C)cc2)cc1 11.8%
COc1ccc(OC2CCN(S(=O)(=O)c3cccc(F)c3)CC2)cc1 11.7%
CCCCn1c(=O)c2oc3ccccc3c2n(CC(=O)Nc2cc(C)ccc2C)c1=O -12.4%
Cc1ccc(CNC(=O)Cc2c(C(=O)O)c(C)cn2C)cc1 -11.2%
CC(=O)N1CCCC1c1nc2ccccc2n1Cc1c(F)cccc1Cl (stereo unspecified) -8.89%
COc1ccc(NC(=O)C2=C(C)Nc3ncnn3C2c2sccc2C)cc1 (stereo unspecified) 4.09%
COc1cc(OC)c(NC(=O)Cc2c(C(=O)O)c(C)cn2C)cc1Cl -11%
COc1ccc(C2C(C(=O)Nc3ccccc3)=C(C)Nc3nc(-c4ccccc4)nn32)c(OC)c1 (stereo unspecified) -22%
Cc1cccc(NC(=O)Cn2c(=O)n(CCc3ccccc3)c(=O)c3ccccc32)c1 -9.57%
CCOc1ccc(CN2C(=O)c3ccccc3Sc3ccc(C(=O)NCc4ccc5c(c4)OCO5)cc32)cc1 -19%
Cc1ccccc1NC(=O)Nc1csc2c1CCCC2 -17.7%
COc1ccc(C(=O)CSc2nc3cc(C(=O)NC4CCCC4)ccc3c(=O)n2CC2CCCO2)cc1 (stereo unspecified) -10.4%
Cc1cccc(C(=O)N2CCNC(=O)C2CC(=O)Nc2ccc(F)cc2)c1 (stereo unspecified) -5.22%
COc1ccc(C)cc1NC(=O)C(NS(=O)(=O)c1cccs1)c1ccccc1 (stereo unspecified) -8.04%
COc1cc(OC)c(NC(=O)c2sc3nc4n(c(=O)c3c2C)CCCC4)cc1Cl -4.62%
COc1ccc(S(=O)(=O)NCCc2sc(C)nc2C)cc1 -39%
CCCc1cnc2c(c1SCc1cccc(C)c1)c(=O)n(C)c(=O)n2C -17.5%
CCCOc1cccc(C(=O)Nc2cc(-c3nc4ccccc4[nH]3)ccc2C)c1 -14.9%
CCn1c(CNC(=O)C23CC4CC(CC(C4)C2)C3)nnc1SCC(=O)Nc1ccc(C)cc1 -2.88%
CCOC(=O)[C@H](CCc1ccccc1)N[C@H]1CCc2ccccc2N(CC(=O)O)C1=O -9.26%
CC(=O)c1ccc(NC(=O)c2sc(-n3nc(C)c(CCC(C)C)c3C)nc2C)cc1 -10.5%
Cc1ccc2c(Sc3ccccc3)c(C(=O)NCc3ccccc3F)[nH]c2c1 -7.02%
CCOc1ccccc1NC(=O)CSc1nc2ccccc2nc1Cc1ccc(C)cc1 -9.17%
Cc1ccc(S(=O)Cc2ccc(C(=O)NCc3ccc(OC(C)C)cc3)o2)cc1 (stereo unspecified) -7.14%
Cc1nc2c3cccnc3nn2c(C)c1CCC(=O)NCc1ccccc1Cl -10.3%
Cc1cc(C)cc(NC(=O)c2nnn(Cc3cccc(Br)c3)c2N)c1 -39.8%
Cc1ccc(CCNC(=O)CN2C(=O)COc3ccc(S(=O)(=O)N4CCCC4)cc32)cc1 -11.4%
O=C(CC1C(=O)OCCN1Cc1ccccc1)Nc1cccc(Cl)c1 (stereo unspecified) -10.7%
CCOc1cc(Cn2c(-c3ccc(O)c(OCC)c3)nc3ccccc32)ccc1O -15.1%
COc1ccc(-n2c(-c3ccccc3F)nc3c(cnn3-c3ccc(C)cc3)c2=O)cc1 -6.56%
CCCCC(=O)N1CC(=O)Nc2ccc(F)cc2C1c1ccc(F)cc1 (stereo unspecified) -6.18%
CS(=O)(=O)c1ncc(N(Cc2ccco2)Cc2cccs2)c(C(=O)Nc2ccccc2F)n1 -20.6%
COc1ccc(Cl)cc1NC(=O)C(C)n1c(=O)cc(C(F)(F)F)c2c(C)nn(C)c21 (stereo unspecified) -21.6%
CC(C)(C)OC(=O)N1CCC(c2nnc(SCc3ccccc3Cl)o2)CC1 -10.1%
CCc1c(C)sc2c1CCN(C(=O)Nc1ccccc1Cl)C2c1ccc(OC)cc1 (stereo unspecified) -8.29%
Cc1ccc(-c2noc(-c3ccc(NC4CCCC4)c([N+](=O)[O-])c3)n2)cc1 14%
Cc1cc(Cl)ccc1NC(=O)C1CCCN1S(=O)(=O)c1ccc2c(c1)CCCC(=O)N2 (stereo unspecified) -8.55%
CCCCCCCCCCCCCCCC[N+](C)(C)CC -16.9%
Cc1cc(-n2c(SCc3ccccc3F)nc3[nH]ncc3c2=O)ccc1Cl -23.7%
CCOC(=O)OC(C)OC(=O)[C@@H]1N2C(=O)[C@@H](NC(=O)[C@H](N)c3ccccc3)[C@H]2SC1(C)C (stereo partly specified) -14.9%
CCOc1ccc(CNC(=O)CCCn2nc(C)c3c(C)n(-c4ccc(C)cc4)nc3c2=O)cc1 -4.41%
COc1ccc(N2C(=O)NC(NS(=O)(=O)c3ccc(NC(C)=O)cc3)(C(F)(F)F)C2=O)cc1 (stereo unspecified) -7.67%
CC1CCc2onc(C(=O)N3CCN(c4ccc(Cl)cc4)CC3)c2C1 (stereo unspecified) -15.2%
Cc1ccc(Cn2ccn(Cc3ccc(C)cc3)c(=O)c2=O)cc1 -12.8%
CCN1CCN(C(=O)Cn2c(-c3cccs3)cc3cc(Cl)ccc32)CC1 -15.1%
Cc1ccc(C)c(N2CCN(C(=O)CCc3c(C)nc4c(c3C)c(=O)n(C)c(=O)n4C)CC2)c1 -4.88%
CCc1ccc(NC(=O)Cn2cnc3nc4c(cc3c2=O)CCCC4)cc1 -31.8%
Cc1ccc(C(=O)N2CC(=O)Nc3ccc(Br)cc3C2c2ccc(F)cc2)cc1C (stereo unspecified) -2.02%
CCOC(=O)c1cc2c(=O)n3ccccc3nc2n(CC(C)C)c1=NC(=O)C(C)(C)Oc1ccc(Cl)cc1 -14.2%
CC(C)CCNC(=O)c1c[nH]c2ccc(S(=O)(=O)Nc3cccc(C(F)(F)F)c3)cc2c1=O -11.9%
COc1ccccc1CNC(=O)C1CCN(c2ncnc3c2nc2n3CCCCC2)CC1 -21.6%
CCc1ccc(-n2c3nc(=O)[nH]c(=O)c-3cc3c(C)nn(-c4ccccc4)c32)cc1 -7.63%
COc1ccc(C(CNC(=O)c2oc3ccccc3c2C)N2CCCCC2)cc1 (stereo unspecified) -13.9%
O=C(Cn1c(-c2cccs2)cc2ccccc21)NCCCN1CCN(c2cccc(Cl)c2)CC1 -11.6%
CCc1nnc(NC(=O)CSc2nccn2Cc2ccccc2)s1 -35.3%
O=C1CCCc2cc(S(=O)(=O)N3CCCC(C(=O)NCc4ccccc4Cl)C3)ccc2N1 (stereo unspecified) -32.1%
COc1cc(Cl)c(C)cc1NC(=O)c1c(C)oc2nc(C)nc(N3CCCC3)c12 -5.88%
